Experimental data: article PMC12136788
Some of the results follow.

B1: chr5:75599425:75599511:+|3pUTR|ENSG00000122008|msi1_unk|total|mutant (ssRNA)
RNA: GGGAGUUCUACAGUCCGACGAUCGAACCGCUUAAUUAAGAACUCACAGACUUUGACAAAGUGGUAACCCGACUUUUAAUUACCCGAUUCUUCAAAUCCGGCUUAAUGCCUGCCCGCAUGCCAAUCCAAUCCCAUGACUGAUGUCAACAGAGGAUUGAGCAUCA
B2: chr7:101137743:101137929:+|3pUTR|ENSG00000106366|msi1|FALSE|unique (ssRNA)
RNA: GGGAGUUCUACAGUCCGACGAUCCCACUGAGGCCCUUUGCAGGAUGGAACUACGGGGCUUACAGGAGCUUUUGUGUGCCUGGUAGAAACUAUUUCUGUUCCAGUCACAUUGCCAUCACUCUUGUACUGCCUGCCACCGCGGAGCAACAGAGGAUUGAGCAUCA
B3: chr2:80288350:80289195:-|three_prime_utr|ENSG00000162951|control|control|control (ssRNA)
RNA: GGGAGUUCUACAGUCCGACGAUCAGAUUCAGUCCCCAGUCCUCCUUCUCUGAGCAGACCUCUCAUCCGCAGCAUAUAUCUGCUAGAUCUUCUAAGAGCUGAAAUGGAGACUUCUGGAAGAAGGUGGGAAAGAAAUCCAUCUCGCAACAGAGGAUUGAGCAUCA
B4: chr6:117694021:117694122:+|CDS|ENSG00000153989|msi1|total|mutant (ssRNA)
RNA: GGGAGUUCUACAGUCCGACGAUCGCUGUCUCCGGAAGAUGGAAAAGCAGAUAUUGUAAGAGCUGCUCAGGACUUUUGCCAGUCCGCCGCCCAGAAGCAAAAGAGACCCACAGAUUUGGAUGCCGAUACGUCCGCCAGUUUACUCAACAGAGGAUUGAGCAUCA
B5: chr5:33997006:33997390:-|three_prime_utr|ENSG00000289791|control|control|control (ssRNA)
RNA: GGGAGUUCUACAGUCCGACGAUCAAUUUAUGUUACACUCAGGCUGCUGGGGGAUGCUUCAGUUUCCUUCACAGAAAACUAAAUAGUGGGAAUCCGGACCAAUAAAGAAAGGAUCAAGAAGCUAAUGAAUUAGUCGCUAAUGCUCAACAGAGGAUUGAGCAUCA
B6: chr19:9526975:9527076:-|3pUTR|ENSG00000130818|unk|total|mutant (ssRNA)
RNA: GGGAGUUCUACAGUCCGACGAUCCCUCUCAGACCUUCCAUCAUUACUAUAUUUCACUUUUAUGCCUAUAAACACACACAAAUCCGCAUAUGUAAUCUAAUACAUUGCCGCUAUUUUUCAGAAGUUAUCAGAUCAAUUAAGUAUCAACAGAGGAUUGAGCAUCA
B7: chr2:235053981:235054083:+|3pUTR|ENSG00000130147|unk|FALSE|unique (ssRNA)
RNA: GGGAGUUCUACAGUCCGACGAUCCUCCUCCAUCGAGGGAGAGGCCUGAAGGGACUGCCUACUGCAGCUCGUUGCCAAUCACAUAGCUUUCUAUUUGUUAAGUAUAAAUUUAAAUUUAAAAUCACUUUUUUAACGAAUGGGGGGCAACAGAGGAUUGAGCAUCA
B8: chr1:42278343:42278454:-|CDS|ENSG00000198815|unk|total|mutant (ssRNA)
RNA: GGGAGUUCUACAGUCCGACGAUCAAAAAGAAAAUGACUUUAAGUGAAAUUUAUCAGUGGAUUUGUGAUAACUUCCCAUAUUACCGAGAGGCUGGCAGUGGUUGGAAGGUAAGGAUUUUAUUUAAAUUAUUACUUUUAUGAAGUCAACAGAGGAUUGAGCAUCA
B9: ENSG00000204186:stop:overlap|stop_codon|ENSG00000204186|stop_codon|NA|stop_codon (ssRNA)
RNA: GGGAGUUCUACAGUCCGACGAUCAACAACGUGAGAGAAUGAUGACUCGGCUAGCAAACAAACUGAGAGGUAAUGAGGUAAAAUAGAAGUUGGUUUUGUGUUCAGGCUAGUUGAGGAUUCAGUACUUCAGUUGAAAUAUAUUUGCAACAGAGGAUUGAGCAUCA
B10: ENSG00000157823:stop:overlap|stop_codon|ENSG00000157823|stop_codon|NA|stop_codon (ssRNA)
RNA: GGGAGUUCUACAGUCCGACGAUCUCCGCUUCUACCAGCGUUUCAAGAAAUUCAACAGCAGAUUGUUCGAGAGACUUUCCAUCUAGUCCUCAAGCGGGAUGACAACAUCUGUAACUUCUUGGAGGGUGGAAGUUUGAUUGGUGGCAACAGAGGAUUGAGCAUCA
B11: chr1:6224442:6224573:-|3pUTR|ENSG00000116237|msi1_unk|FALSE|overlapping (ssRNA)
RNA: GGGAGUUCUACAGUCCGACGAUCCUAUACAAUUUUAAAAAUACUUCCUCAUAGGAUGCUUUGGCCCUUCAUCUAUUUAAUCAUAGCUACAUACCUAUUUUUUAUAAGUAGCAGUACACAUUCAAAGGGGUAUUCCUAGCUCAACAACAGAGGAUUGAGCAUCA
B12: chr9:116187394:116187495:+|CDS|ENSG00000182752|msi1|FALSE|unique (ssRNA)
RNA: GGGAGUUCUACAGUCCGACGAUCUGGGGAACAAGUGGGUGGCAUAUUCAGCCCACUGACCCAGAAGUGCAAAGUGCUCAUGUUAGGGGGCAGUGCCCUGAAUCACAACUACCGGGGCUACAUCGAGCACUUCAGUCUGUGGAACAACAGAGGAUUGAGCAUCA
B13: chr13:19772241:19772543:-|CDS|ENSG00000121390|control|control|control (ssRNA)
RNA: GGGAGUUCUACAGUCCGACGAUCAGUAGAGAAAGCUGUUGUGGUUGUGGAUGAUCGCGGUAGAGCUACAGGAAAAGGUUUUGUAGAGUUUGCAGCAAAACCUCCUGCACGAAAGGCUCUGGAAAGAUGUGGUGAUGGGGCAUUCAACAGAGGAUUGAGCAUCA
B14: chr11:2944997:2945113:-|3pUTR|ENSG00000205531|unk|FALSE|unique (ssRNA)
RNA: GGGAGUUCUACAGUCCGACGAUCCUGUGUAGAGUAGGGCCCUGUUCUCCUUAGGAUGUUGCUUCUUGAUUUUUUUUUUUUUUUAGGGGUGGGUCAGGGUUGUGACACACCAGCCCAGGUGAGAGCUGCUGCGGGUCACCUCAUCAACAGAGGAUUGAGCAUCA
B15: ENSG00000070961:be:win_6451|3pUTR|ENSG00000070961|bound_else_gene|NA|bound_elsewhere_windowed (ssRNA)
RNA: GGGAGUUCUACAGUCCGACGAUCUAAGCCAACUGAGAUACCGUGAUGGUGUUGAUUUCUUUCAAUGAUGCUUACCAUCUAUUUUAGCCACUGAGCCUUUUAUUAUUUGUCUAUUUGUAAAGUUUAUUUGUCUUAACUCAUUUACAACAGAGGAUUGAGCAUCA
B16: chrX:74591538:74591767:-|CDS|ENSG00000131263|unk|FALSE|bound_elsewhere (ssRNA)
RNA: GGGAGUUCUACAGUCCGACGAUCUUGCCCUUCCUUAGCCUGGCUCAGUUUUUCCUCUUAAAUGAGGAUGAUGAUGACCAACCUAGAGGACUCACCAAAGAACAGAUUGACAACUUGGCAAUGAGAAGUUUUGGUGAAAAUGAUCAACAGAGGAUUGAGCAUCA
B17: chr2:73730642:73730743:-|CDS|ENSG00000144034|unk|FALSE|unique (ssRNA)
RNA: GGGAGUUCUACAGUCCGACGAUCUUCAGACGUAGGAAACAAUGGUUAAUGAUCUUGUGUUUUUUUUUUCAUUUUUUUUCUCUUAGAUUUCAGAGGCUUUGAAAAAAUUUGGUAUCUCAGCAAAUGACACUUCAAUUCUAAUUGCAACAGAGGAUUGAGCAUCA
B18: chr19:39539560:39539696:-|CDS|ENSG00000176396|unk|total|mutant (ssRNA)
RNA: GGGAGUUCUACAGUCCGACGAUCCGGGAACGGAGGCCUGGCUGCGUUGCCCUAUCUCCGUCUCCGCCACCCACUCCGCGUUUCCGGCAUCAAUUACCAGCAGUUUCUCCGCCACUAUCUGGAAAAUUACCCGAUUGCUCCCGGCAACAGAGGAUUGAGCAUCA
B19: chr1:150647640:150647741:-|3pUTR|ENSG00000143457|unk|total|mutant (ssRNA)
RNA: GGGAGUUCUACAGUCCGACGAUCAGAUUCAAUUACCUGGAUGUCAAAGUCCCCGAGCCAGAAAUAUAUUCUCUCAUCCCUCUCCGCAUUCUCUUGCUCCCUCAUUCACCCGGGCAAAUGUCUAAAUGAAGAAAAGUCUCUCUCCAACAGAGGAUUGAGCAUCA
B20: chr14:49622334:49622435:+|CDS|ENSG00000168282|unk|total|mutant (ssRNA)
RNA: GGGAGUUCUACAGUCCGACGAUCCAAUACUUGACUGUAUCUUGUCUUCCAAAAUUCUGGAAAGUGCUGGUUCCUCAAAUUCCCCGGAUCUUUCAUGCUGGAGACUGUGGUAUGCAUCACAAGAAAACCUGCCGACCAUCCACUCAACAGAGGAUUGAGCAUCA
B21: chrX:71240429:71240530:-|3pUTR|ENSG00000147130|msi1|total|mutant (ssRNA)
RNA: GGGAGUUCUACAGUCCGACGAUCGGCUUUGGGUUUCCUGACCCAUCCCGCACCGGCCGAGCCUCUUGUUCCCCGGCAUGACCCCGGGAAAAACCCAGCUGCCUUCUCUGCCCUGUGCCCACUCCCUUCUCUACUCUUCCCCAGCAACAGAGGAUUGAGCAUCA
B22: ENSG00000044524:stop:overlap|stop_codon|ENSG00000044524|stop_codon|NA|stop_codon (ssRNA)
RNA: GGGAGUUCUACAGUCCGACGAUCACAGCCGCAAGUUUGAGUUUGAAACUAGUCCAGACUGUAUGUAUUAUUUCAAUGCAGUCUAGAGGAGGGGGCAGGGAUCUUGCAAAAGAUGUCUGAUCGUUUAUUCUCACUGUUUCUAAGCAACAGAGGAUUGAGCAUCA

What follows are binders tested against T1, UNK ZnF1-6 (called full-length) (human, UniProt Q9C0B0 30-357) (assay: nsRBNS (natural sequence RNA bind-n-seq); RBNS binding buffer (assumed for nsRBNS): 25 mM Tris pH 7.5, 150 mM KCl, 3 mM MgCl2, 0.01% Triton X-100, 500 ug/ml BSA, 20 U/ml SUPERase-In, 4 C; UNK is unkempt and MSI1 is Musashi-1; names of the RNAs are library labels; protein concentration not given here; high values mean tight binding).
T1 sequence: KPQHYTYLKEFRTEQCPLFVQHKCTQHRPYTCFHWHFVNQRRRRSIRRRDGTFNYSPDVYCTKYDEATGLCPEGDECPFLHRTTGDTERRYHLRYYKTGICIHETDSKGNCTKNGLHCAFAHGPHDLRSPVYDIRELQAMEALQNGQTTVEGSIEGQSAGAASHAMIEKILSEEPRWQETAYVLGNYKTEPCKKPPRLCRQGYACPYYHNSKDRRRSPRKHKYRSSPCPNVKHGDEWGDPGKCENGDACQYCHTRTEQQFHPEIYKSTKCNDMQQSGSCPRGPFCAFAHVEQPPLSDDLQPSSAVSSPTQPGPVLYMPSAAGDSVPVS

| Binder | binding signal [enrichment R] |
| --- | --- |
| B1 | 0.537 |
| B2 | 0.502 |
| B3 | 0.527 |
| B4 | 0.562 |
| B5 | 0.584 |
| B6 | 2.25 |
| B7 | 2.97 |
| B8 | 1.7 |
| B9 | 4.96 |
| B10 | 0.633 |
| B11 | 2.06 |
| B12 | 0.696 |
| B13 | 0.874 |
| B14 | 22 |
| B15 | 3.38 |
| B16 | 0.364 |
| B17 | 1.44 |
| B18 | 0.56 |
| B19 | 0.715 |
| B20 | 0.459 |
| B21 | 0.999 |
| B22 | 1.11 |
